Laboratory results reported in paper PMC4336329 (PLoS ONE, 2015).
In all, about 310,000 compounds went through this assay and about 2,200 (0.71%) showed an effect of 50% or more. The effect is printed as a negative number. The list shows a part of the results.

What follows are molecules tested against human ether-à-go-go-related gene (hERG) potassium channel (human, UniProt Q12809) (assay: primary screen, population patch clamp on CHO cells stably expressing hERG).
Sequence of human ether-à-go-go-related gene (hERG) potassium channel (Q12809 whole entry, looked up): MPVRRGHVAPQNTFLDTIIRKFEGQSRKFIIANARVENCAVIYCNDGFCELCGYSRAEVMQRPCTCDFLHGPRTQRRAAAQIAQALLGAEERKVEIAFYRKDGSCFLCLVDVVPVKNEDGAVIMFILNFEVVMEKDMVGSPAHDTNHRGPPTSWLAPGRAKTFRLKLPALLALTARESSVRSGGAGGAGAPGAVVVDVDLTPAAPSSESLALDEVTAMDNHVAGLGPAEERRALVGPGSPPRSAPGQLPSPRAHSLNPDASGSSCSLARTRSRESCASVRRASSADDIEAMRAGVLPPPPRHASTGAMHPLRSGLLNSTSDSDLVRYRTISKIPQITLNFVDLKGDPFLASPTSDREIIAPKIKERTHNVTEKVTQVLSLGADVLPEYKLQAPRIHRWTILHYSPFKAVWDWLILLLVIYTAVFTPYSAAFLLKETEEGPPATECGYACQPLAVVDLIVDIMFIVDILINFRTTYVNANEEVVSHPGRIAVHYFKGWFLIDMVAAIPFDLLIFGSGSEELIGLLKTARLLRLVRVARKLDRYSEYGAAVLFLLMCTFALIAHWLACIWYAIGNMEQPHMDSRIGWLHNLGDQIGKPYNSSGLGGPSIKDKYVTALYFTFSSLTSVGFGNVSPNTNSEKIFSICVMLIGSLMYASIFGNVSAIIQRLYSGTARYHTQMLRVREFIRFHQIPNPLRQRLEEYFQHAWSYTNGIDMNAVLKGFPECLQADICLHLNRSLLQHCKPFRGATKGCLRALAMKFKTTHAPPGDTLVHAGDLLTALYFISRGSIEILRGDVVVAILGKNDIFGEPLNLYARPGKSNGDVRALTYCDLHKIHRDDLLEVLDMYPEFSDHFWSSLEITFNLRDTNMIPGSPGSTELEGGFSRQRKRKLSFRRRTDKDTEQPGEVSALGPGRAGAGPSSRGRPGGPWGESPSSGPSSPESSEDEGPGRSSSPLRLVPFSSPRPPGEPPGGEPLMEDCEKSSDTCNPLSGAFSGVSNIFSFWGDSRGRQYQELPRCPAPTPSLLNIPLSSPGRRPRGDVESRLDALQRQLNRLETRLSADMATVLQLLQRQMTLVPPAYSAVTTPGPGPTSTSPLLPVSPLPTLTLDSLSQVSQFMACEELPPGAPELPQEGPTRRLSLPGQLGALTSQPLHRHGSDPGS

First: CCCC(=O)Nc1cccc(NC(=O)c2ccc3c(c2)OCO3)c1
Second: CCOCC(=O)Nc1cc(C(=O)Nc2ccccc2)ccc1Cl
The “hERG current change (%, negative = inhibition) at 1uM” value of the first is lower: -20.9% for the first, 6.2% for the second.

Compared with `Fc1ccccc1N1CCN(c2nnnn2-c2ccccc2)CC1`, `Cc1cccc(N(CC(=O)N2CCN(c3ccccc3F)CC2)S(C)(=O)=O)c1` is lower in “hERG current change (%, negative = inhibition) at 1uM” value: 6.46% for the first, 5.79% for the second.

Compared with `Cc1ccccc1C(=O)NNC(=O)c1ccoc1C`, `Cc1nnc(NC(=O)c2ccccc2F)s1` is higher in “hERG current change (%, negative = inhibition) at 1uM” value: -12.3% for the first, 12.7% for the second.

Going from `CSCCC(NC(=O)/C(=C\c1ccco1)NC(=O)c1ccco1)C(=O)O` (stereo not drawn) to `O=C(CSc1nnnn1C1CCCCC1)NNC(=O)c1ccco1`, the “hERG current change (%, negative = inhibition) at 1uM” value rises from -2.32% to 11.7%.

First: CCc1cc(=O)oc2cc(C)cc(OCC(=O)NC(Cc3c[nH]c4ccc(O)cc34)C(=O)O)c12 (stereo not drawn)
Second: O=C(COc1ccc2c3c(c(=O)oc2c1)CCCC3)NC(Cc1ccc(Cl)cc1)C(=O)O (stereo not drawn)
The “hERG current change (%, negative = inhibition) at 1uM” value of the first is lower: 12.8% for the first, 15.3% for the second.

Going from `O=c1nccc(Nc2ccccc2)[nH]1` to `C[C@H]1CN=C(Nc2ccccc2)N1CCc1ccccc1`, the “hERG current change (%, negative = inhibition) at 1uM” value falls from 13.4% to 10.9%.

First: O=C(Nc1ccccc1Br)C1CC(=O)N(c2ccc3c4c(cccc24)CC3)C1 (stereo not drawn)
Second: O=C(CN1C(=O)COc2ccccc21)c1cccc(Cl)c1
The “hERG current change (%, negative = inhibition) at 1uM” value of the first is lower: 7.21% for the first, 14.3% for the second.

Going from `C=CCn1c(=O)c(C(=O)NC2CC2)c(O)c2cc(OC)c(OC)cc21` to `COc1cccc(OCCNC(=O)c2cc(OC)c(OC)c(OC)c2)c1`, the “hERG current change (%, negative = inhibition) at 1uM” value rises from 10.3% to 13.6%.

Compared with `O=C(NNS(=O)(=O)c1ccc(F)cc1F)C1Cc2c(ccc3ccccc23)O1` (stereo not drawn), `Cc1cccc(NC(=O)CN2C(=O)NC(C)(c3ccc4ccccc4c3)C2=O)n1` (stereo not drawn) is lower in “hERG current change (%, negative = inhibition) at 1uM” value: 17.1% for the first, -15.6% for the second.

First: CC(C)c1nnc(NC(=O)C2CCCN(C(=O)Nc3ccc(F)cc3)C2)s1 (stereo not drawn)
Second: COc1ccc(NC(=O)C2CC(=O)N/C(=N/NC(=O)c3ccc(Cl)cc3)S2)cc1 (stereo not drawn)
The “hERG current change (%, negative = inhibition) at 1uM” value of the first is higher: 10.6% for the first, -4.25% for the second.

Going from `Cc1ccc(S(=O)(=O)NC(CC(C)C)C(=O)Oc2ccc3c4c(c(=O)oc3c2)CCC4)cc1` (stereo not drawn) to `COc1ccc(-c2cc(C(=O)Nc3ccc(S(=O)(=O)Nc4onc(C)c4C)cc3)c3ccccc3n2)cc1`, the “hERG current change (%, negative = inhibition) at 1uM” value falls from 16.5% to 15.6%.

Going from `Cc1cc2c(NC(=O)Nc3ccc(C(F)(F)F)cc3)cccc2nn1` to `Cc1cc(-c2nnc(SCC(=O)Nc3ccccc3C(F)(F)F)n2N)n[nH]1`, the “hERG current change (%, negative = inhibition) at 1uM” value rises from 2% to 19.4%.

Compared with `CCOc1cc(CN2CCN(S(=O)(=O)Cc3ccccc3)CC2)ccc1OC.O=C(O)C(=O)O`, `COCc1cc(C)nc(N2CCN(Cc3ccccc3)CC2)c1C#N` is lower in “hERG current change (%, negative = inhibition) at 1uM” value: 0.965% for the first, -3.29% for the second.

Going from `COc1cc(/C=C/C(=O)O)cc(S(=O)(=O)Nc2ccc3nc(SC)sc3c2)c1OC` to `CSc1sc(C(=O)N2CCc3ccccc32)cc1S(=O)(=O)C(C)C`, the “hERG current change (%, negative = inhibition) at 1uM” value rises from 12.1% to 15%.

First: CC1=C(C(=O)OC(C)C)C(c2ccco2)NC(=O)N1 (stereo not drawn)
Second: COc1ccc(C(OC(=O)c2ccco2)C(=O)NC2CCCC2)cc1 (stereo not drawn)
The “hERG current change (%, negative = inhibition) at 1uM” value of the first is lower: 10.8% for the first, 18.3% for the second.

Going from `Cc1ccc(S(=O)(=O)N2CCSC2)cc1C` to `Cc1ccc(C(=O)N2CCSCC2)cc1`, the “hERG current change (%, negative = inhibition) at 1uM” value falls from 9.84% to -6.84%.

Going from `O=C(CCN1C(=O)C2CC=C(Cl)CC2C1=O)NC1CCCCC1` (stereo not drawn) to `COc1ccc(NC(=O)CCN2C(=O)C3C4C=CC(C4)C3C2=O)cc1` (stereo not drawn), the “hERG current change (%, negative = inhibition) at 1uM” value rises from 0.212% to 5.4%.

Going from `Cc1ccc(-n2nc3c([n+]2[O-])CCc2c-3no[n+]2[O-])cc1` to `Cc1ccc(S(=O)(=O)Nc2ccc(-c3nnc(SCc4ccccc4Cl)o3)cc2)cc1`, the “hERG current change (%, negative = inhibition) at 1uM” value falls from 19.7% to 13.7%.

First: CS(=O)(=O)c1ccccc1C(=O)Nc1cc2c(cc1C(=O)O)OCCCO2
Second: CC(C)C1Oc2ccccc2C(=O)N(CC(=O)c2ccc3c(c2)OCCO3)C1=O (stereo not drawn)
The “hERG current change (%, negative = inhibition) at 1uM” value of the first is lower: 8.44% for the first, 11.9% for the second.

First: O=C(NCc1ccc(N2CCCC2=O)cc1)c1cccc(Cl)c1
Second: C=CCN1C(=O)C(Cc2ccccc2Cl)SC1=Nc1ccc(C(=O)O)cc1 (stereo not drawn)
The “hERG current change (%, negative = inhibition) at 1uM” value of the first is lower: 2.86% for the first, 8.92% for the second.

Compared with `CC(C)(C)S(=O)(=O)c1cnc(-c2cnccn2)nc1N`, `Cn1c(SCC(=O)C(C)(C)C)nnc1-c1ccccn1` is lower in “hERG current change (%, negative = inhibition) at 1uM” value: 8.36% for the first, 1.57% for the second.

First: Cc1ccc2cc(C#N)c(SCC(=O)NCC3CCCO3)nc2c1 (stereo not drawn)
Second: C/C(=N\NC(=O)CSc1nc2ccccc2o1)c1cccc(O)c1
The “hERG current change (%, negative = inhibition) at 1uM” value of the first is higher: 10.4% for the first, 6.06% for the second.

First: C=CCn1cc(C(=O)NCCCOCC)c(=O)c2cc(S(=O)(=O)N(CC)CC)ccc21
Second: CCN(CC)S(=O)(=O)c1ccc(C)c(NC(=O)COC(=O)CCC(=O)c2cccs2)c1
The “hERG current change (%, negative = inhibition) at 1uM” value of the first is lower: 4.06% for the first, 13% for the second.

Compared with `O=C(O)c1ccc(NCc2nc3ccccc3n2CCOc2ccccc2Cl)cc1`, `Cc1ccccc1OCCn1c(=S)[nH]c2ccccc21` is higher in “hERG current change (%, negative = inhibition) at 1uM” value: 7.61% for the first, 15.5% for the second.

Going from `CC1(C)CC(CC(=O)O)C(=O)O1` (stereo not drawn) to `Cc1ccc(N(CC(=O)O)C2SC(=O)NC2=O)cc1` (stereo not drawn), the “hERG current change (%, negative = inhibition) at 1uM” value falls from 13.4% to 12.9%.

First: Cc1ccc(/C=N/n2c(COc3ccccc3)n[nH]c2=S)cc1
Second: Cc1ccccc1OCc1nc2ccccc2c(=O)n1/N=C/c1c[nH]c2ccccc12
The “hERG current change (%, negative = inhibition) at 1uM” value of the first is higher: 14.9% for the first, 7.56% for the second.

Going from `COc1ccccc1OC(C)C(=O)Nc1ccc2c(c1)n(C)c(=O)n2C` (stereo not drawn) to `COc1ccccc1-c1nc(SCC(=O)Nc2ccccc2)n[nH]1`, the “hERG current change (%, negative = inhibition) at 1uM” value falls from 13.8% to 5.6%.

Compared with `COc1cccc(/C=C2\SC(=S)N(CCCC(=O)N3CCCCC3)C2=O)c1`, `CCN(CC(=O)N1CCCC1)S(=O)(=O)c1ccc2ccccc2c1` is higher in “hERG current change (%, negative = inhibition) at 1uM” value: 5.8% for the first, 12.3% for the second.

Going from `CN(C)CCN(C(=O)c1ccc2c(c1)CCCC2)c1nc2c(F)cccc2s1.Cl` to `CCCN(CC(=O)Nc1cc(Cl)ccc1Cl)C(=O)c1ccc2n[nH]nc2c1`, the “hERG current change (%, negative = inhibition) at 1uM” value falls from 6.94% to -8.7%.

Compared with `Cc1ccc(/C=N/NC(=O)c2ccccn2)o1`, `O=[N+]([O-])CC(=Nc1ccc(Cl)cc1)N/N=C\c1oc(O)c2ccccc12` is higher in “hERG current change (%, negative = inhibition) at 1uM” value: -5.35% for the first, 6.07% for the second.

Compared with `Cc1nn(C)c(C)c1NS(=O)(=O)c1ccccc1Cl`, `O=C1c2ccccc2C(=O)c2[nH]cnc21` is higher in “hERG current change (%, negative = inhibition) at 1uM” value: 2.49% for the first, 6.89% for the second.

Compared with `CCC(c1nnnn1Cc1ccco1)N1CCC(C(N)=O)CC1.Cl` (stereo not drawn), `CCc1ccc(-c2nc(CN3CCC(C(=O)NCCN(CC)c4ccccc4)CC3)c(C)o2)cc1` is lower in “hERG current change (%, negative = inhibition) at 1uM” value: 14.4% for the first, -15.6% for the second.

Going from `CCN(CC)P(=O)(Nc1ccc([N+](=O)[O-])cc1)c1c(C)nn(CCC#N)c1NC(=O)c1ccc(Cl)cc1Cl` (stereo not drawn) to `O=C(Nc1ccccc1Cl)c1ccc(-n2cccn2)c([N+](=O)[O-])c1`, the “hERG current change (%, negative = inhibition) at 1uM” value rises from -0.927% to 6.01%.

First: CCC(C)N1CCCC1C(=O)Nc1c(C)cc(C)cc1C.Cl (stereo not drawn)
Second: Cc1cc(C)cc(NC(=O)CSc2ccc(-c3ccccn3)nn2)c1
The “hERG current change (%, negative = inhibition) at 1uM” value of the first is lower: 1.17% for the first, 14.6% for the second.

Going from `COCCOC(=O)C1=C(C)NC2=C(C(=O)CCC2)C1c1ccc(N(C)C)cc1` (stereo not drawn) to `Cc1noc(C)c1C(=O)OC(C)C(=O)Nc1ccc(C(N)=O)cc1` (stereo not drawn), the “hERG current change (%, negative = inhibition) at 1uM” value falls from -4.29% to -8.97%.

Going from `CCc1cc(C(=O)NCCN(C)C)cs1` to `CCN(CC)S(=O)(=O)c1cccc(C(=O)NC2=NCCS2)c1`, the “hERG current change (%, negative = inhibition) at 1uM” value rises from -4.33% to 15.6%.

Compared with `C/C(=N/OCC(=O)NCCCCCCNC(=O)CO/N=C(/C)c1cccs1)c1cccs1`, `CCN(CC)C(=O)Oc1ccc(Cl)c2ccccc12` is lower in “hERG current change (%, negative = inhibition) at 1uM” value: 17.5% for the first, 9.96% for the second.

First: CCC1CCc2c(sc(NC(=O)C3CC=CCC3C(=O)O)c2C#N)C1 (stereo not drawn)
Second: CC(=O)N1CCN(C(=O)CNC(=O)c2ccc(Br)o2)CC1
The “hERG current change (%, negative = inhibition) at 1uM” value of the first is lower: 3.12% for the first, 12.5% for the second.

Compared with `O=c1[nH]nc(N/N=C/c2ccccc2OC(F)F)c(=O)[nH]1`, `O=c1[nH]c2ccccc2nc1-c1ccc(Cl)cc1` is higher in “hERG current change (%, negative = inhibition) at 1uM” value: 11.8% for the first, 18.7% for the second.

Compared with `COC(=O)c1cccc(NC(=S)N2CCN(C)CC2)c1`, `Cc1cc(N2CCN(C)CC2)nc2ccc(NC(=S)N3CCN(c4cccc(Cl)c4)CC3)cc12` is higher in “hERG current change (%, negative = inhibition) at 1uM” value: 7.91% for the first, 11.1% for the second.

Compared with `COc1ccc2[nH]c3c(NCc4ccco4)ncnc3c2c1`, `Nc1nc(Nc2cccc(Cl)c2)nc(NCc2ccco2)c1[N+](=O)[O-]` is higher in “hERG current change (%, negative = inhibition) at 1uM” value: -5.07% for the first, 17.6% for the second.

Going from `CC(C)COC(=O)NC1c2ccccc2Oc2ccccc21` to `Cc1ccc2[nH]c(C(=O)N3CCN(C(c4ccccc4)c4ccccc4)CC3)cc2c1`, the “hERG current change (%, negative = inhibition) at 1uM” value rises from -2.38% to 14.8%.

First: CC1=Nc2ccccc2/C1=C\c1nc(-c2ccc(F)cc2)oc1O
Second: COc1ccc(-c2nnc(NC(=O)c3ccc(S(=O)(=O)N4CCCc5ccccc54)cc3)o2)cc1
The “hERG current change (%, negative = inhibition) at 1uM” value of the first is higher: 17.4% for the first, 5.94% for the second.

Compared with `Cc1cc(C(=O)O)c(CSc2ncn[nH]2)o1`, `CCOC(=O)c1csc(NC(=O)CSc2nnnn2CC)n1` is lower in “hERG current change (%, negative = inhibition) at 1uM” value: 15.5% for the first, 9.27% for the second.

Compared with `O=C(OCCCN1CCOCC1)c1ccc(O)c(O)c1`, `CN(C1CCCC1)C1CCN(C(=S)Nc2cc(F)cc(F)c2)CC1` is lower in “hERG current change (%, negative = inhibition) at 1uM” value: 8.77% for the first, -3.25% for the second.
